Source: PubChem BioAssay (Tox21)
The shares of active, inactive and inconclusive entries below differ from those in the screen. Entries that show only a call come without a potency. For some of these results: Potencies beside an inconclusive call are fits to weak or partial responses and may not hold up. Activity calls are given as the source filed them. Unless noted, calls follow the shape of the dose curve; as a rule, active = well fitted curve in the direction sought with a large enough effect in the repeat runs; inconclusive = weak or mixed curves; inactive = no such curve, though single readings can be large; an effect the other way counts as inactive or inconclusive. Bridge positions count the residues as written; N and C are the ends. Square brackets hold non-standard residues; d marks the D form. Peptide text beside a SMILES is read from it. hArg = N=C(N)NCCCC[C@H](N)C(=O)O; Mpa = O=C(O)CCS

Key:
[1] = qHTS assay to identify small molecule antagonists of the peroxisome proliferator-activated receptor delta (PPARd) signaling pathway - cell viability counter screen (AID 743213); conditions: PPARd-bla HEK293H viability, CellTiter-Glo luminescence, 17 h; viability change, negative = cytotoxic: at 62 µM (top of the series) unless noted; also: nearly all actives have a fitted effect of over 50% in size; also: potency is read from the fitted curve at half-maximal effect
Outline: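 Cytotoxicity counter screen: CellTiter-Glo luminescence read 30 min after addition, in the same wells as the reporter assay. There, PPARd UAS-bla HEK293H cells (3000/well) were treated 17 h at 37 C with compound and 300 nM L165041.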

[2] = molecular target: Peroxisome proliferator-activated receptor delta (Homo sapiens) (UniProt Q03181); assay: qHTS assay to identify small molecule antagonists of the peroxisome proliferator-activated receptor delta (PPARd) signaling pathway (AID 743215; active = well fitted inhibition curve with a large enough effect in the signal ratio in the repeat runs, not every such curve was filed as active; inconclusive = weak or mixed curves, or effect the other way; inactive = no such curve, though single readings can be large or run the other way; the % refers to the signal ratio;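 also: cells stimulated with agonist L165041 at 300 nM final during compound exposure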; also: potency is read from the fitted curve at half-maximal effect); conditions: HEK293H PPARd-UAS-bla, beta-lactamase FRET ratio, antagonist, 17 h; ratio activity, negative = inhibition: at 62 µM (top of the series) unless noted
Outline: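 Here, a reporter line (HEK293H, beta-lactamase under a UAS) measures PPARd signaling. Compounds are tested against agonist L165041 at 300 nM final concentration over 17 h at 37 C, with fluorescence read after substrate.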

[3] = molecular target: Vitamin D3 receptor (Homo sapiens) (UniProt P11473); assay: qHTS assay to identify small molecule antagonists of the vitamin D receptor (VDR) signaling pathway (AID 743223; active = well fitted inhibition curve with a large enough effect in the signal ratio in the repeat runs, not every such curve was filed as active; inconclusive = weak or mixed curves, or effect the other way; inactive = no such curve, though single readings can be large or run the other way; the % refers to the signal ratio); conditions: VDR-UAS-bla HEK293T, beta-lactamase FRET ratio, 16 h; activity change, negative = inhibition: at 61 µM (top of the series) unless noted
Outline: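 After VDR-bla cells are plated and left 4 h at 37C, DMSO-dissolved compounds and 3 nM (final) calcitriol agonist are added. Incubation continues 16 h at 37C; FRET beta-lactamase substrate then develops 2 h at room temperature.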

[4] = qHTS assay to identify small molecule agonists of the vitamin D receptor (VDR) signaling pathway - cell viability counter screen (AID 743224); conditions: VDR-bla HEK293T viability, CellTiter-Glo luminescence, 16 h; activity change, negative = cytotoxicity: at 62.6 µM (top of the series); also: nearly all actives have a fitted effect of over 50% in size; also: potency is read from the fitted curve at half-maximal effect
Outline: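 CellTiter-Glo viability readout on VDR-bla cells, measured after 16 h of compound treatment at 37C in the same wells.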

[5] = qHTS assay to identify small molecule antagonists of the vitamin D receptor (VDR) signaling pathway - cell viability counter screen (AID 743225); conditions: VDR-bla HEK293T viability, CellTiter-Glo luminescence, 16 h; viability change, negative = cytotoxic: at 61 µM (top of the series) unless noted; also: nearly all actives have a fitted effect of over 50% in size; also: potency is read from the fitted curve at half-maximal effect
Outline: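 Cytotoxicity toward the VDR-bla HEK 293T line was scored by ATP-based CellTiter-Glo luminescence, read in the wells already used for the beta-lactamase readout after 16 h compound treatment under 3 nM 1-alpha,25-dihydroxyvitamin D3 stimulation.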

[6] = qHTS assay to identify small molecule agonists of the endoplasmic reticulum stress response signaling pathway (AID 1159516; active = well fitted activation curve with a large enough effect in the signal ratio in the repeat runs, not every such curve was filed as active; inconclusive = weak or mixed curves, or effect the other way; the % refers to the signal ratio; also: potency is read from the fitted curve at half-maximal effect); conditions: ESRE-bla HeLa, ER stress beta-lactamase reporter, 5 h; activation: at 61 µM (top of the series) unless noted
Outline: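 Fluorescence at 460 and 530 nm (405 nm excitation) reports beta-lactamase from an ER stress response element in HeLa cells treated 5 hr at 37 C.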

[7] = molecular target: Peroxisome proliferator-activated receptor delta (Homo sapiens) (UniProt Q03181); assay: qHTS assay to identify small molecule agonists of the peroxisome proliferator-activated receptor delta (PPARd) signaling pathway (AID 743212; calls by dose curve; also: potency is read from the fitted curve at half-maximal effect); conditions: HEK293H PPARd-UAS-bla, beta-lactamase FRET ratio, 17 h; activation: at 62.6 µM (top of the series) unless noted
Outline: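 Tox21 library screened in GeneBLAzer PPARd UAS-bla HEK293H cells. After compound treatment at 37 C, a FRET-based beta-lactamase substrate was applied for 2 h and fluorescence recorded.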

[8] = molecular target: Vitamin D3 receptor (Homo sapiens) (UniProt P11473); assay: qHTS assay to identify small molecule agonists of the vitamin D receptor (VDR) signaling pathway (AID 743222; calls by dose curve; also: potency is read from the fitted curve at half-maximal effect); conditions: HEK293T VDR-UAS-bla, beta-lactamase FRET ratio, 16 h; activation: at 63.5 µM (top of the series) unless noted
Outline: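 Tox21 cell reporter format: VDR-bla line, 16 h compound exposure in 5% CO2 at 37C, then fluorescence intensity after 2 h with LiveBLAzer B/G FRET substrate.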

[9] = molecular target: Bile acid receptor (Homo sapiens) (UniProt Q96RI1); assay: qHTS assay to identify small molecule antagonists of the farnesoid-X-receptor (FXR) signaling pathway (AID 743217; active = well fitted inhibition curve with a large enough effect in the signal ratio in the repeat runs, not every such curve was filed as active; inconclusive = weak or mixed curves, or effect the other way; inactive = no such curve, though single readings can be large or run the other way; the % refers to the signal ratio); conditions: HEK293T FXR-UAS-bla, beta-lactamase ratio, CDCA-stimulated, 16 h; activity change, negative = inhibition: at 62.6 µM (top of the series) unless noted
Outline: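 Test compounds are pin-transferred onto FXR-bla HEK 293T cells, then chenodeoxycholic acid is added at 50 uM final. After 16 h at 37 °C, LiveBLAzer B/G substrate is applied for 2 h at room temperature and fluorescence read.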

[10] = qHTS assay to identify small molecule agonists of the farnesoid-X-receptor (FXR) signaling pathway - cell viability counter screen (AID 743218); conditions: FXR-bla HEK293T viability, CellTiter-Glo luminescence, 16 h; viability change, negative = cytotoxic: at 62.6 µM (top of the series) unless noted; also: nearly all actives have a fitted effect of over 45% in size; also: potency is read from the fitted curve at half-maximal effect
Outline: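 Quantitative HTS counter screen measuring ATP-based viability via CellTiter-Glo luminescence in HEK 293T cells carrying a UAS-driven beta-lactamase reporter, after 16 h compound exposure at 37 C.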

[11] = qHTS assay to identify small molecule antagonists of the farnesoid-X-receptor (FXR) signaling pathway - cell viability counter screen (AID 743221; active = well fitted cell-killing curve with a large enough effect in the repeat runs, not every such curve was filed as active; inconclusive = weak or mixed curves, or effect the other way; inactive = no such curve, though single readings can be large or run the other way; also: potency is read from the fitted curve at half-maximal effect; nearly all actives have a fitted effect of over 50% in size); conditions: FXR-bla HEK293T viability, CellTiter-Glo luminescence, 16 h; activity change, negative = cytotoxicity: at 62.6 µM (top of the series)
Outline: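 CellTiter-Glo, 30 min RT, luminescence; same wells as the LiveBLAzer FRET read. Cells: FXR-UAS-bla HEK 293T. Treatment: compound with chenodeoxycholic acid 50 uM final, 16 h at 37 C.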

[12] = qHTS assay to identify small molecule agonists of the RXR signaling pathway - cell viability counter screen (AID 1159529); conditions: RXR-alpha-bla HEK293T viability, CellTiter-Glo, 16 h; series mostly up to 76.8 µM; also: nearly all actives have a fitted effect of over 50% in size; also: potency is read from the fitted curve at half-maximal effect
Outline: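 Tox21 10K compounds were tested for cytotoxicity against GeneBLAzer RXR-alpha HEK 293T cells grown in 2% charcoal-stripped FBS. Exposure lasted 16 hr at 37 C, 5% CO2; viability read by CellTiter-Glo luminescence.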

[13] = qHTS assay to identify small molecule antagonists of the retinoid acid receptor (RAR) signaling pathway - cell viability counter screen (AID 1159551); conditions: C3RL4 cells viability, ATP luminescence (CellTiter-Glo), 6 h; series mostly up to 92.4 µM; also: nearly all actives have a fitted effect of over 35% in size; also: potency is read from the fitted curve at half-maximal effect
Outline: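 In this counter screen, the RARE-luciferase line C3RL4 was exposed for 6 h at 37 C and 5% CO2 to compounds with retinol at 1 uM final. Cellular ATP, read by luminescence, served as the viability measure.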
Tags tell the direction and shape of the fitted curve or compound fluorescence and quenching.

UniProt Q96RI1, sequence (Q96RI1 whole entry, looked up): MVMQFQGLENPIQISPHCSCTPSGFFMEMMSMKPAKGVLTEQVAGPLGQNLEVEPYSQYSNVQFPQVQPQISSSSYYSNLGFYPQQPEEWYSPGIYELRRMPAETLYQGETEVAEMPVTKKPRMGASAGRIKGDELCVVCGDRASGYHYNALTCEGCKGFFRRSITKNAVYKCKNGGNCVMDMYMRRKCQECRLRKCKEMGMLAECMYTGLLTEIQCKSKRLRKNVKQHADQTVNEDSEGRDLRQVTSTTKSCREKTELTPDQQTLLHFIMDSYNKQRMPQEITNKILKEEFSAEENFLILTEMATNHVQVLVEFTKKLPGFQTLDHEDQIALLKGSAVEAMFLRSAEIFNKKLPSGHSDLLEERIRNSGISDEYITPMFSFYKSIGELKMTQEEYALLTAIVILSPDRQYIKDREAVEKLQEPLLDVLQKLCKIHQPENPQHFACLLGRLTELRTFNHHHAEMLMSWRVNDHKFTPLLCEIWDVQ
UniProt Q03181, sequence (Q03181 whole entry, looked up): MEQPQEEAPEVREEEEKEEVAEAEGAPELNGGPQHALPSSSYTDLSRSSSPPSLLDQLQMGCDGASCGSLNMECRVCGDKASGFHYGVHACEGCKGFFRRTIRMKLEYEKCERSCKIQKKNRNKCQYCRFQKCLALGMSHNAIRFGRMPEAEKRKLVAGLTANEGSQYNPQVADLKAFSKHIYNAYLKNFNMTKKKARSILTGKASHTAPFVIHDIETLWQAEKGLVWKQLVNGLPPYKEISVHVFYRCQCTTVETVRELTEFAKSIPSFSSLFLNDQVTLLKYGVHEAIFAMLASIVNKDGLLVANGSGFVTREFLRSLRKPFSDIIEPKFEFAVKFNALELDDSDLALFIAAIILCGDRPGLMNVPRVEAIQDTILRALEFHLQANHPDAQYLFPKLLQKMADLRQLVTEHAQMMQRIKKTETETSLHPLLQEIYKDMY
UniProt P11473, sequence (P11473 whole entry, looked up): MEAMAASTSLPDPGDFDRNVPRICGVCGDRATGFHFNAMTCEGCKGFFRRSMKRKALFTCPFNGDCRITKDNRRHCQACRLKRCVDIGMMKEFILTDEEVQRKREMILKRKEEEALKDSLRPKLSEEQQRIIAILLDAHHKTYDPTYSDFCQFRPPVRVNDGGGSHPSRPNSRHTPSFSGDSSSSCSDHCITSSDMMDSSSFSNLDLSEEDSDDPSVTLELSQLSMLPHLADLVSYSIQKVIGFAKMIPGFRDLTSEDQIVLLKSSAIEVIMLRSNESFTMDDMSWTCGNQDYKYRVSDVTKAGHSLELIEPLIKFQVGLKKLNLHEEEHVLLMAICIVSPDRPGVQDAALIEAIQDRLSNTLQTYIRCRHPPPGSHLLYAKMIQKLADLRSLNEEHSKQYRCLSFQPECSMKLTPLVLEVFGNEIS

With O=C(O)CNC(=O)c1ccc([N+](=O)[O-])cc1 the viability change, negative = cytotoxic [1] was inconclusive: 7.11% [cytotoxic], the Potency [2] was “inactive” and the activity change, negative = inhibition [3] was inconclusive: 7.67%. For the same molecule, the Potency [4] was inconclusive: 38.7 µM [rising, partial curve, poor fit], the Potency [5] was “inactive” and the Potency [6] was “inactive”.

With CCCCCCCCCCCCCCC(=O)O the Potency [7] was inconclusive: 55.1 µM, the Potency [1] was inconclusive: 21.9 µM [cytotoxic, partial curve, poor fit] and the activation [8] was inconclusive: -4.94% [at 81.1 µM]. For the same molecule, the Potency [3] was “inactive” and the Potency [6] was “inactive”.

In the case of COc1ccc2c(c1OC)C(=O)O[C@@H]2[C@H]1c2c(cc3c(c2OC)OCO3)CCN1C, the Potency [1] is reported as inconclusive: 2.66 µM [cytotoxic, single point], the ratio activity, negative = inhibition [2] is reported as inconclusive: -0.549% and the activity change, negative = inhibition [3] is reported as inconclusive: 4.74%. The Potency [4] was “inactive” and the Potency [6] was “inactive”.

In the case of CCCCCCCC(=O)OCCCCCC, the Potency [7] is reported as “inactive”, the Potency [2] is reported as “inactive” and the activity change, negative = inhibition [9] is reported as inconclusive: -10.5%. The Potency [10] was inconclusive: 0.616 µM [rising, full curve, poor fit], the Potency [11] was inconclusive: 21.9 µM [falling, single point] and the Potency [3] was “inactive”. For the same molecule, the Potency [6] was inconclusive: 0.219 µM [rising, full curve].

For O=Cc1cccc(Br)c1, the Potency [3] was “inactive”, the Potency [6] was “inactive” and the Potency [12] was “inactive”. The Potency [13] was “inactive”.

For Cc1cc(C(=O)O)ccc1[N+](=O)[O-], the Potency [1] was inconclusive: 0.0155 µM [cytotoxic, full curve, poor fit], the Potency [2] was “inactive” and the Potency [11] was inconclusive: 8.73 µM [rising, partial curve, poor fit]. The Potency [8] was “inactive”, the activity change, negative = inhibition [3] was inconclusive: 24.8% and the Potency [6] was “inactive”.

For Cc1ccc(C(C)C)cc2c(C)ccc1-2, the Potency [9] was “inactive”, the Potency [6] was inconclusive: 23.9 µM [falling, partial curve] and the Potency [12] was “inactive”.

With O=C1NC(=O)[C@@]2(CCOc3ccc(F)cc32)N1 the ratio activity, negative = inhibition [2] was inconclusive: -2.18%, the Potency [8] was “inactive” and the Potency [6] was “inactive”. The Potency [12] was “inactive”.

For C=C[Si](OC(C)=O)(OC(C)=O)OC(C)=O, the Potency [1] was inconclusive: 61.6 µM [cytotoxic, single point], the ratio activity, negative = inhibition [2] was inconclusive: -39.7% and the Potency [10] was “inactive”. For the same molecule, the Potency [4] was inconclusive: 54.9 µM [cytotoxic, single point] and the Potency [6] was “inactive”.

With CNC(=O)CN(CCN(CCN(CC(=O)[O-])CC(=O)NC)CC(=O)[O-])CC(=O)[O-].O.[Gd+3] the Potency [7] was “inactive”, the Potency [10] was “inactive” and the Potency [3] was “inactive”. For the same molecule, the Potency [6] was “inactive”.

For O=c1[nH]cnc2ccccc12, the Potency [2] was “inactive”, the Potency [6] was “inactive” and the Potency [13] was inconclusive: 0.0028 µM [cytotoxic, partial curve, poor fit].

With CC(=O)Oc1c(C)c(C)c2c(c1C)CC[C@@](C)(CCC[C@H](C)CCC[C@H](C)CCCC(C)C)O2 the Potency [2] was inconclusive: 61.7 µM [rising, single point], the ratio activity, negative = inhibition [2] was inconclusive: 4.1% and the Potency [8] was inconclusive: 38.9 µM [rising, partial curve, poor fit]. The Potency [3] was “inactive”, the Potency [5] was inconclusive: 30.1 µM [cytotoxic, partial curve, poor fit] and the Potency [6] was inconclusive: 19.5 µM [falling, partial curve]. The Potency [12] was “inactive”.

With CCOCCOCCOCC the ratio activity, negative = inhibition [2] was inconclusive: 11%, the Potency [3] was “inactive” and the Potency [6] was “inactive”. The Potency [12] was “inactive”.

With O=C(CN1CCNCC1)NC1CCCCC1 the Potency [1] was “inactive” and the Potency [6] was “inactive”.

For CCCCc1ccc2cccc(S(=O)(=O)O)c2c1, the Potency [3] was “inactive”, the Potency [4] was inconclusive: 45.7 µM [rising, partial curve, poor fit] and the Potency [6] was “inactive”. For the same molecule, the Potency [12] was inconclusive: 22.9 µM [rising, partial curve, poor fit].

For O=C(O)c1ccc(O)cc1O, the Potency [1] was “inactive”, the ratio activity, negative = inhibition [2] was inconclusive: 9.48% [at 80.4 µM] and the Potency [6] was inconclusive: 0.78 µM [rising, partial curve, poor fit].

In the case of NC(=O)[C@@H]1CSSCCC(=O)N[C@@H](CCCCN=C(N)N)C(=O)NCC(=O)N[C@@H](CC(=O)O)C(=O)N[C@@H](Cc2c[nH]c3ccccc23)C(=O)N2CCC[C@H]2C(=O)N1 ([Mpa][hArg]GDWPC-NH2; disulfide 1-7), the Potency [1] is reported as “inactive”, the Potency [2] is reported as inconclusive: 33.5 µM [fluorescent] and the Potency [3] is reported as “inactive”. For the same molecule, the Potency [6] was “inactive”.

With O=C1CC(c2ccc(Cl)cc2)CC(=O)N1 the Potency [1] was inconclusive: 3.35 µM [cytotoxic, full curve, poor fit], the Potency [9] was “inactive” and the Potency [3] was “inactive”. The Potency [6] was “inactive”.

With O=Nc1ccc(O)cc1 the Potency [7] was “inactive”, the Potency [9] was “inactive” and the Potency [6] was inconclusive: 53.7 µM [falling, single point]. For the same molecule, the Potency [13] was inconclusive: 59.7 µM [cytotoxic, partial curve].

In the case of Cc1ccc(C(C)(C)C)cc1, the Potency [7] is reported as “inactive”, the activity change, negative = inhibition [3] is reported as inconclusive: 4.03% and the Potency [4] is reported as “inactive”. For the same molecule, the Potency [6] was inconclusive: 62 µM [rising, partial curve, poor fit].
